Read counts are not given, so values of variants with three or more changes are uncertain.

B1: OR4K15 (parent)
chain: GUUAACGGUCAUAGGCCAUGGAAACUAGGAGCACCAUUUCGCUGCCAGUGAAGAAAUGAACAAAGAAAAUCUGGGCCAGGCAGGCAUCAAAAGAAAUAGUCUUGCGCUCAACCAGAAAGUCUGUAAUCAUUUUAAGGGUA

The series covers variants of B1. Briefly: self-cleavage, relative activity (ratio to wild type); higher = more cleavage; in vitro, sequencing; the parent is a self-cleaving ribozyme.
With GUUAACGGUCGUAGGCCAUGGAAACUAGGAGCACCAUUUCGCUGCCAGUGAAGAAAUGAACAAAGAAAAUCGGGGCCAGGCAGGCAUCAAAAGAAAUAGUCUUGCGCUCAGCCAGAGAGUCUGUAAUCAUUUUAAGGGUA [A11G U72G A111G A117G], the self-cleavage was 0.03.

For the variant GUUAACGGUCGUAGGCCAUGGAAACUAGGAGCACCAUUUCGCUGCCAGUGAAGAAAUGAACAAAGAAAAUCUGGGCCAGGCAGGCAUCAAAAGAAAUAGUCCUGCGCUCAACCAGAAAGCCUGUAAUCAUUUUAAGGGUA [A11G U102C U120C], the self-cleavage is 1.14.

GUUAACGGUCUUAGGCCAUGGAGACUAGGAGCACCAUUUCGCUGCCAGUGAAGAAAUGAACAAAGAAAAUCUGGGCCAGGCAGGCAUCAAAAGAAUUAGUCUUGCGCUCAACCAGAAAGUCUGUAAUCAUUUUAAGGGUA [A11U A23G A96U]: the self-cleavage is 0.86.

GUUAACGGUCGUAGGCCAUGGAAACUAGGAGCACCAUUUCGCUGCCAGUGAAGAAAUGAACAAAGAAAAUCUGGGCCAGGCAGGCACCAAAAGAAAUAGUCUUGCGCUCAGCCAGAAAGUCUGUAAUCAUUUUAAGGGUA [A11G U87C A111G]: the self-cleavage worked out at 0.04.

As to GUUAACGGUCGUAGGCCAUGGAAACUAGGAGCACCAUUUCGCUGCCAGUGAAGAAAUGAACAAAGAAAAUCUGGGCCAGGCAGGCAUCAAAAGAAAUAGUCUUGCGCCUGACCAGAAAGUCUGUAAUCAUUUUAAGGGUA [A11G U108C C109U A110G], the self-cleavage turned out to be 0.01.

For GUUAACGGUCUUAGGCCAUGGAGCCUAGGAGCACCAUUUCGCUGCCAGUGAAGAAAUGAACAAAGAAAAUCUGGGCCAGGCAGGCAUCAAAAGAAAUAGUCUUGCGCUCAACCAGAAAGUCUGUAAUCAUUUUAAGGGUA [A11U A23G A24C], the self-cleavage stood at 1.15.

On to GUUAACGGUCUUAGGCCAUGGCAACUAGGAGCACCAUUUCGCUGCCAGUGAAGAAAUGAGCAAAGAAAAUCUGGGCCAGGCAGGCAUCAAAAGAAAUAGUCUUGCGCUCAACCAGAAAGUCUGUAAUCAUUUUAAGGGUA [A11U A22C A60G], for which the self-cleavage stood at 0.93.

On to GUUAACGGUCGUAGGCCAUGGAAACUAGGAGCACCAUUUCGCUGCCAGUGAAGAAAUGAACAAAGAAAAUCUGGGCCAGGCAGGCAUCAAAAGAAAUAGCCUUGCGCUCAACCAGAAAGUCUGUAAUCAUUUUAGGGGAA [A11G U100C A135G U139A], for which the self-cleavage came out at 1.22.

With GUUAACGGUCGUAGGCCAUGGAAACUAGGAGCACCAUUUCGCUGCCAGUGAAGAAAUGAACAAAGAAAAUCUGGGCCAGGCAGGCAUCAAAAGAAAUAGUCUUGCGCACAACCAGAGAGUCUGUAAUCAUUUUAAGGGUA [A11G U108A A117G], the self-cleavage worked out at 0.

Consider GUUAACGGUCGUAGGCCAUGGAAACUAGGAGCACCAUUUCGCUGCCAGCGAAGAAAUGAACAAAGAAAAUCUGGGCCAGGCAGGCAUCAAAAGAAAUAGUCAUGCGCUCAACCAGAAAGUCUGUAAUCAUUUUAAGGGUA [A11G U49C U102A], for which the self-cleavage stood at 1.07.

In the case of GUUAACGGUCUUAGGCCAUGGAGACUAGGAGCACCAUUUCGCUGCCAGUGAAGAAGUGAACAAAGAAAAUCUGGGCCAGGCAGGCAUCAAAAGAAAUAGUCUUGCGCUCAACCAGAAAGUCUGUAAUCAUUUUAAGGGUA [A11U A23G A56G], the self-cleavage was 0.87.

Regarding GUUAACGGUCGUAGGCCAUGGAAACUAGGAGCACCAUUUCGCUGCCAGCGAAGAAAUGAACAAAGAAAAUCCGGGCCAGGCUGGCAUCAAAAGAAAUAGUCUUGCGCUCAACCAGAAGGUCUGUAAUCAUUUUAAGGGUA [A11G U49C U72C A82U A118G], the self-cleavage was found to be 0.05.

As for GUUAACGGUCGUAGGCCAUGGAAACUAGGAGCACCAUUUCGCUGCCAGUGAAGAAAGGAACAAAGAAAAUCUGGGCCAGGCAGGCAUCAAAAGAAACAGUCUUGCGCUCAACCAGAGAGUCUGUAAUCAUUUUAAGGGCA [A11G U57G U97C A117G U139C], the self-cleavage worked out at 0.95.

Take GUUAACGGUCUUAGGCCAUGGAGACUAGGAGCACCAUUUCGCUGCCAGUGAAGAAAUGAACAAAGAAAAUCUGGGCCAGGCAGGCAUCGAAAGAAAUAGUCUUGCGCUCGACCAGAAAGUCUGUAAUCAUUUUAAGGGUA [A11U A23G A89G A110G]: the self-cleavage came to 0.14.

Consider GUUAACGGUCUUAGGCCAUGGAGACUAGGAGCACCAUUUCGCUGCCAGUGAAGAAAUGAACAAAGAAAAUCUGGGCCAGGCAGGUAUCAAAAGAAAUAGUCUUGCGCUCAACCAGAAAGUCUGUAAUCAUUUUAAGGGUA [A11U A23G C85U], for which the self-cleavage was found to be 0.36.

GUUAACGGUCGUAGGCCAUGGAAACUAGGAGCACCAUUUCGCUGCCAGUGAAGAAACGAACAAAGAAAAUCUGGGCCAGGCAGGCAUCAAAAGAAAUAGUCUUGCGCUCAACCAGAAAGUCCGUAAUCAUUUUAAGAGUA [A11G U57C U122C G137A]: the self-cleavage amounted to 0.98.

GUUAACGGUCUUAGGCCAUGGACACUAGGAGCACCAUUUCGCUGCCAGUGUAGAAAUGAACAAAGAAAAUCUGGGCCAGGCAGGCAUCAAAAGAAAUAGUCUUGCGCUCAACCAGAAAGUCUGUAAUCAUUUUAAGGGUA [A11U A23C A51U]: the self-cleavage is 1.1.

Consider GUUAACGGUCUUAGGCCUUGGAAACUAGGAACACCAUUUCGCUGCCAGUGAAGAAAUGAACAAAGAAAAUCUGGGCCAGGCUGGCGUCAAAAGAAAUAGUCUUGCGCUCAACCAGAAAGACUGUAAUCAUUUUAAGGGUA [A11U A18U G31A A82U A86G U120A], for which the self-cleavage came out at 0.09.

For the variant GUUAACGGUCUUAGGCCAUGGGAACUAGGAGCACCAUUUCGCUGCCAGCGAAGAAACGAACAAAGAAAAUCUGGGCCAGGCAGGCAUCAAAAGAAAUAGUCUUGCGCUCAACCAGAAAGUCUGUAAUCAUUUUAAGGGUA [A11U A22G U49C U57C], the self-cleavage is 1.1.

With GUUAACGGUCGUAGGCCAUGGAAACUAGGAGCACCAUUUCGCUGCCAGUGAAGAAACGAACAAAGAAAAUCUGGGCCAGGCAGGCAUCAAAAGAAAUAGUCUUGCGCUCAACCAGAAAAUCUGUAAUCAUUUUAAGGGUA [A11G U57C G119A], the self-cleavage is 1.27.

As for GUUAACGGUCGUAGGCCAUGGAAACUAGGAGCACCAUUUCGCUGCCAGUGAAGAAAGGAACAAAGAAAAUCUGGGCCAGGCAGGCAUCAAAAGAAAUAGUCUUGGGCUCAACCAGAAAGUCUGUAAUCAUUUUAAGGGUA [A11G U57G C105G], the self-cleavage turned out to be 0.09.

For the origin of these results see the RNAGym collection of RNA variant scans (doi:10.7554/elife.90254).
